In patent US20240132593A1 (KINETA, published 2024):

T1: His-tagged recombinant mouse VISTA-ECD (Met 1 to Ala 194) (mouse, UniProt Q9D659 33-194)
T1 construct: Bought (Sino Biological); not shown: His tag
T1 sequence: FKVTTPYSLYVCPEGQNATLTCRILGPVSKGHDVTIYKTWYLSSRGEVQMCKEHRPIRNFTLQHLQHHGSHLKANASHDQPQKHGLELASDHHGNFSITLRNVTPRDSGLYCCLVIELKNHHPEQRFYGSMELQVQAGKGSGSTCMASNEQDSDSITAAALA


What was measured:
[1] = target: 3xN-VISTA-ECD-Fc (human); experiment: ELISA on plate-bound VISTA-ECD-Fc
[2] = target: T2, RFQ-VISTA-ECD-Fc (human); experiment: ELISA, 10 ug/mL antibody on plate-bound mutant VISTA-Fc
T2 construct: also called hVISTA ECD-Fc R54A, F62A, Q63A; human VISTA-Fc 54A62A63A

[3] = target: T1, His-tagged recombinant mouse VISTA-ECD …; experiment: ELISA endpoint, His-VISTA on plate, mAb at 23 µg/mL

Binder	ELISA Abs 450 nm [2] [Abs 450 nm]	endpoint absorbance (450 nm) [3]	also measured
Antibody No. 91 (antibody, human IgG1, kappa, human IgG1 constant region in the entry; also called Ab No. 91) heavy: QVQLQESGPGLVKPSETLSLTCTVSGGSISSYYWSWIRQPPGKGLEWIGYIYYSGSTNYNPSLKSRVTISVDTSKSQFSLKLSSVTAADTAVYYCASDIPAFAFDIWGQGTMVIVSS[human IgG1 constant region not listed] light: EIVLTQSPATLSLSPGERATLSCRASQSVSYYLAWYQQKPGQAPRLLIYDAFNRATGIPARFSGSGSGTDFTLTISSLEPEDFAVYYCQQRINWPLTFGGGTKVEIKRTVAAPSVFIFPPSDEQLKSGTASVVCLLNNFYPREAKVQWKVDNALQSGNSQESVTEQDSKDSTYSLSSTLTLSKADYEKHKVYACEVTHQGLSSPVTKSFNRGEC			EC50 [1]: 0.2 µg/mL
Antibody No. 173.1 (antibody, human IgG1, kappa, Human IgG1, kappa) heavy: QLQLQESGPGLVKPSETLSLTCIVSGGSISSSGYYWGWIRQPPGKGLEWIGSIFYSGNTHYNPSLKSRVTIPVDTSKNQFSLKLSSVTAADSAVYYCARRDILTGPFDYWGQGTLVTVSSA[human IgG1 constant region not listed] light: DIQMTQSPSSLSASVGDRVTITCQASQDITNYLTWYQQKPGNAPKLLIYDASNLETGVPSRFSGSGSGTDFTFTINSLQPEDVATYFCQQYDNLPTFGGGTKVEIKRTVAAPSVFIFPPSDEQLKSGTASVVCLLNNFYPREAKVQWKVDNALQSGNSQESVTEQDSKDSTYSLSSTLTLSKADYEKHKVYACEVTHQGLSSPVTKSFNRGEC		0.079	
Antibody No. 173.1 (antibody, human IgG1, kappa, human IgG1) heavy: QLQLQESGPGLVKPSETLSLTCIVSGGSISSSGYYWGWIRQPPGKGLEWIGSIFYSGNTHYNPSLKSRVTIPVDTSKNQFSLKLSSVTAADSAVYYCARRDILTGPFDYWGQGTLVTVSSA[human IgG1 constant region not listed] light: DIQMTQSPSSLSASVGDRVTITCQASQDITNYLTWYQQKPGNAPKLLIYDASNLETGVPSRFSGSGSGTDFTFTINSLQPEDVATYFCQQYDNLPTFGGGTKVEIKRTVAAPSVFIFPPSDEQLKSGTASVVCLLNNFYPREAKVQWKVDNALQSGNSQESVTEQDSKDSTYSLSSTLTLSKADYEKHKVYACEVTHQGLSSPVTKSFNRGEC	1.66		

Continued, in another order:

ELISA Abs 450 nm [2] [Abs 450 nm]	endpoint absorbance (450 nm) [3]	Binder	also measured
1.48		Antibody No. 245.1 (antibody, human IgG1, kappa) heavy: QVQLQESGPGLVKPSETLSLTCTVSGGSISSYYWSWIRQPPGKGLEWIGYIYYSGSTNYNPSLKSRVTISVDTSKSQFSLKLSSVTAADTAVYYCARDIPAFAFDIWGQGTMVIVSSA[human IgG1 constant region not listed] light: EIVLTQSPATLSLSPGERATLSCRASQSVSYYLAWYQQKPGQAPRLLIYDAFNRATGIPARFSGSGSGTDFTLTISSLEPEDFAVYYCQQRINWPLTFGGGTKVEIKRTVAAPSVFIFPPSDEQLKSGTASVVCLLNNFYPREAKVQWKVDNALQSGNSQESVTEQDSKDSTYSLSSTLTLSKADYEKHKVYACEVTHQGLSSPVTKSFNRGEC	
	0.075	Antibody No. 245.1 (antibody, human IgG1, kappa, Human IgG1, kappa) heavy: QVQLQESGPGLVKPSETLSLTCTVSGGSISSYYWSWIRQPPGKGLEWIGYIYYSGSTNYNPSLKSRVTISVDTSKSQFSLKLSSVTAADTAVYYCARDIPAFAFDIWGQGTMVIVSSA[human IgG1 constant region not listed] light: EIVLTQSPATLSLSPGERATLSCRASQSVSYYLAWYQQKPGQAPRLLIYDAFNRATGIPARFSGSGSGTDFTLTISSLEPEDFAVYYCQQRINWPLTFGGGTKVEIKRTVAAPSVFIFPPSDEQLKSGTASVVCLLNNFYPREAKVQWKVDNALQSGNSQESVTEQDSKDSTYSLSSTLTLSKADYEKHKVYACEVTHQGLSSPVTKSFNRGEC	
